Reference: PubChem BioAssay AID652104 (National Center for Advancing Translational Sciences (NCATS), 2013)
Screen size: about 410,000 compounds; about 7,200 (1.8%) were called active. Inconclusive results, whose numbers are uncertain, are shown with a selection of clear calls. The call rests on the fitted dose curve; in most records, active means well fitted activation curve with a large enough effect; inconclusive means small, poorly fitted or top-dose-only effect, or another doubt; inactive means no such curve, though single readings can be large or run the other way. Potencies of inconclusive entries are left out as doubtful fits.

assay: qHTS of TDP-43 Inhibitors; settings: TDP-43 expressing yeast growth rescue, BacTiter-Glo, 24 h; growth rescue (activation): at 46.1 µM (top of the series) unless noted; further: nearly all actives have a fitted effect of over 50% in size; on growth rescue (activation): % of control where 0% means no effect
Outline: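 Yeast cells expressing TDP-43 under galactose induction are exposed to compounds for 24 hr at 30 deg C. BacTiter-Glo luminescence measures growth, so protective compounds score as activators.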
Potency means the concentration at half of the fitted maximal effect; tags describe the fitted curve by direction and shape.

| Structure (SMILES) | Potency | growth rescue (activation) |
| --- | --- | --- |
| CSc1nc(NCC(C)C)nc(N2CCOCC2)n1 | inconclusive [activator, single point] | – |
| Cc1onc(-c2c(F)cccc2Cl)c1C(=O)Nc1ccc(OC(C)C)cc1 | inconclusive [activator, partial curve] | – |
| O=C(NC1CCCCC1)c1cccc2c(-c3ccc(F)c(F)c3)coc12 | inconclusive [activator, single point] | – |
| CN1C(=O)C2(c3ccccc31)N(C)CC(c1ccccn1)C21SC(=S)N(Cc2ccco2)C1=O (configuration not stated) | inconclusive [activator, single point] | – |
| O=C(CSc1nnc(-c2ccco2)o1)Nc1ccccc1Cl | inconclusive [activator, partial curve] | – |
| CCOc1ccc(C(=O)NCC(=O)OCc2c(F)cccc2Cl)cc1 | active: 22.4 µM | – |
| O=S(=O)(Nc1cccc2cccnc12)c1ccc(S(=O)(=O)N2CCCC2)cc1 | inconclusive [activator, single point] | – |
| Cc1cccc(C(=O)N2CCC(=O)N([C@H](COCc3cccc(C(F)(F)F)c3)Cc3ccccc3)CC2)c1 | inconclusive [activator, partial curve] | – |
| CCN(C(=O)CCN1C(=O)S/C(=C\c2ccccc2)C1=O)C1CCS(=O)(=O)C1 (configuration not stated) | inactive | – |
| C=CCOc1cccc(CNc2cccc(C(=O)O)c2)c1 | inconclusive [activator, single point] | – |
| COc1ccc2oc(=O)c(C(=O)NC(C)c3ccccc3)cc2c1 (configuration not stated) | inconclusive [activator, single point] | – |
| COc1cccc(C(=O)Nc2ccc(-n3nncc3-c3ccccc3)cc2)c1 | active: 35.5 µM | – |
| COc1ccc(S(=O)(=O)N2CCN(CC(=O)Nc3c(C)n[nH]c3C)CC2)cc1OC | inactive | – |
| CC(C)(C)C(=O)NC(=S)Nc1sc2c(c1C#N)CCCCC2 | inconclusive [activator, single point] | – |
| CCCCc1nc2sc3c(=O)n(N)cnc3c2c2c1CCC2 | inconclusive [activator, full curve, poor fit] | – |
| Cc1ccc(SCC(=O)Nc2cccc(NC(=O)c3ccco3)c2)cc1 | inconclusive [activator, single point] | – |
| CCOC(=O)C1CCN(C(=O)CSCc2nc(-c3ccc(OCC)cc3)oc2C)CC1 | inconclusive [activator, single point] | – |
| COc1ccc(CCNC(=O)Cn2c(=O)c3cccn3c3ccc(F)cc32)c(OC)c1 | inactive | – |
| Cc1ccc(C)c(-c2nnc(NC(=O)c3ccc4c(c3)OCCO4)o2)c1 | inconclusive [activator, full curve] | – |
| COc1ccc(/C=N/Nc2nc3ccccc3s2)cc1O | inconclusive [activator, partial curve] | – |
| COc1cn(CC(=O)Nc2ccccc2)c(CN2CCCCC2)cc1=O | inconclusive [activator, partial curve] | – |

| Structure (SMILES) | Potency | growth rescue (activation) |
| --- | --- | --- |
| Cn1c(=S)c2[nH]c(SCCN3CCCC3)nc2n(C)c1=O | inactive | – |
| CCn1c(SCC(=O)Nc2ccc(F)cc2F)nc2c(c1=O)SCC2 | inconclusive [activator, partial curve] | – |
| COc1ccc(C2C(C(=O)Nc3ccccc3OC)=C(C)Nc3c(C(=O)Nc4ccccc4)cnn32)c(OC)c1 (configuration not stated) | inactive | – |
| COC(C)c1oc2c(C)c3oc(=O)cc(C)c3cc2c1C (configuration not stated) | inconclusive [activator, partial curve] | – |
| CSc1ccc(C2c3c(oc4cc(C)cc(C)c4c3=O)C(=O)N2CCO)cc1 (configuration not stated) | inconclusive [activator, partial curve, poor fit] | – |
| CCOC(=O)c1cc(-c2ccc(OC)cc2)nc2c1c(C)nn2CCC#N | inconclusive [activator, partial curve] | – |
| CCC(=O)c1c(NCCc2ccccc2)cc(C)oc1=O | inconclusive [activator, partial curve] | – |
| CC[C@@H](C)[C@@H](C(=O)Nc1ccc(C)cc1)N1Cc2ccccc2C1=O | inconclusive [activator, partial curve] | – |
| CC(Sc1ccccc1)C(=O)N1CCN(S(=O)(=O)c2cccc(Br)c2)CC1 (configuration not stated) | inconclusive [activator, single point] | – |
| Cc1nnc(SCc2ccccc2Cl)c2cc3sccc3n12 | inconclusive [activator, single point] | – |
| O=C(Oc1ccc(Br)cc1C(=S)N1CCOCC1)c1cccc([N+](=O)[O-])c1 | inactive | – |
| Cc1ccc(CNC(=O)Nc2cn(CC(C)C)c(=O)c3ccccc23)cc1 | inconclusive [activator, partial curve] | – |
| COc1ccc(NC(=O)C(c2cc3c(cc2[N+](=O)[O-])OCO3)N2CCN(C=O)CC2)cc1 (configuration not stated) | inactive | – |
| COCCn1c(SCCN2CCOCC2)nc2c1c(=O)[nH]c(=O)n2C | inconclusive [activator, full curve, poor fit] | – |
| CC(C)(C)c1csc(Sc2ccc([N+](=O)[O-])cn2)n1 | active: 11.2 µM | – |
| CCOc1cc(C2NC(=O)c3c(sc4c3CCN(C)C4)N2)ccc1OC(=O)c1ccccc1Cl (configuration not stated) | inconclusive [activator, partial curve, poor fit] | – |
| CCn1c2ccc(C)cc2c2nc3cc(C(=O)O)ccc3nc21 | – | inconclusive: -89.5% [activator] |
| Cc1ccc2[nH]c(C(=O)Nc3ccccc3)cc2c1 | inconclusive [activator, partial curve, poor fit] | – |
| FC(F)(F)c1ccc(Oc2ccc3c(C(F)(F)F)cc(C(F)(F)F)nc3n2)cc1 | inconclusive [activator, single point] | – |
| Cc1ccc(-c2[nH]c(-c3ccc(Cl)cc3)nc2SCC(=O)NCC2CCCO2)cc1 (configuration not stated) | inactive | – |
| Cn1c(Cl)c(/C=N/OC(=O)C2CC2)c2ccccc21 | inconclusive [activator, partial curve] | – |
